From PubChem BioAssay AID1963576 (National Center for Advancing Translational Sciences (NCATS), 2024)
The whole screen tested about 46,000 compounds, of which about 60 (0.1%) were called active. Another 3% or so got no clear call; they are omitted. Calls come from the whole dose curve; as a rule, active = well fitted inhibition curve with a large enough effect; inconclusive = small, poorly fitted or top-dose-only effect; inactive = no such curve, though single readings can be large or run the other way. The list shows a part of the results.

experiment: Primary qHTS assay for Inhibitors of ovarian cancer metastasis using an organotypic tumor microenvironment (TME) model.; note: nearly all actives have a fitted effect of over 65% in size;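 for activity change, negative = inhibition: plate controls were DMSO wells for no effect and tomatine positive control wells for full effect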; conditions: SKOV3ip1-GFP adhesion/invasion on 3D omental model, fluorescence; series mostly up to 45.8 µM; activity change, negative = inhibition: at the top concentration
Outline: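 Adhesion/invasion was scored as fixed GFP-labeled SKOV3ip1 cell counts (488/509 nm), normalized to DMSO and tomatine controls. Cancer cells in serum-free medium, with four compound doses (0.36-46 umol/L), sat 2 hr at RT then 16 hr at 37 C on a 48 hr fibroblast/mesothelial/ECM culture.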

Structure (SMILES) | activity change, negative = inhibition | outcome
CCCC(=O)NC(C)c1nc2ccccc2n1Cc1ccccc1 (stereo unspecified) | inactive: 16% | –
CCOC(=O)c1sc(NC(=O)C2c3ccccc3Oc3ccccc32)c(C#N)c1C | – | inactive
COc1cccc(-c2ccc3c(N)c(C(=O)Nc4cc(C(F)(F)F)ccc4OC)sc3n2)c1 | inactive: -12.3% | –
CCOC(=O)c1c(C)[nH]c(C)c1S(=O)(=O)N1CCCC(C(=O)NCc2cccc(OC)c2)C1 (stereo unspecified) | – | inactive
COc1cc(CNC(=O)CCCCC=CC(C)C)ccc1O | inactive: -17.5% | –
Cc1cc(C(=O)N2CCN(c3cccc(C)c3C)CC2)c2c(C)nn(-c3ccccc3)c2n1 | inactive: -5.69% | –
Cc1cccc(OCC(=O)Nc2cc(-c3ccccc3F)nn2-c2ccccc2)c1 | inactive: -4.39% | –
Cc1c(C(=O)N(C)C)sc2c1c(=O)n(-c1ccc(Cl)cc1)c(=O)n2Cc1ccccc1F | inactive: -2.39% | –
COc1ccccc1CNC(=O)CCC1N=C2c3ccccc3N=C(SCC(=O)Nc3ccc(N(C)C)cc3)N2C1=O (stereo unspecified) | inactive: -29.3% | –
COc1ccc(S(=O)(=O)N2CCCN(CC(=O)Nc3ccc(OC)cc3OC)CC2)cc1 | inactive: -5.89% | –
COCCNc1nc2c(c(=O)n(Cc3cccc(Br)c3)c(=O)n2C)n1C | inactive: -30% | –
COC(=O)c1ccc2c(c1)N(Cc1ccc(Cl)cc1)C(=O)c1ccccc1S2 | – | inactive
Cc1nc2nc(SCC(=O)NC3CCCCC3)nn2c(C)c1Cc1ccccc1Cl | inactive: -6.13% | –
COc1ccc(OC)c2sc(N3CCN(C(=O)CCS(=O)(=O)c4ccc(F)cc4)CC3)nc12 | inactive: 4.78% | –
Cc1cc(Cl)ccc1NC(=O)Cn1nnc2sc(-c3ccccc3)cc2c1=O | inactive: 2.4% | –
CC(C)c1ccc(Nc2ncnc3onc(-c4ccc(F)cc4)c23)cc1 | inactive: 3.25% | –
COc1cc(NC(=O)N2CCC(CN3CCOCC3)CC2)cc(OC)c1OC | inactive: -7.24% | –
CCCn1c2ccccc2c2cnn(CC(=O)N3CCCC(C)C3)c(=O)c21 (stereo unspecified) | inactive: 12.6% | –
CCCCn1nc(NC(=O)c2cccc(Cl)c2)c2cc3cccc(C)c3nc21 | inactive: 4.87% | –
COc1cccc(N2CCN(C(=O)c3cc4c(=O)oc5ccc(C)cc5c4s3)CC2)c1 | inactive: 1.98% | –
O=C(NCCCc1nc2ccccc2n1Cc1ccc(Cl)cc1)C1CCCCC1 | inactive: -4.18% | –

Structure (SMILES) | activity change, negative = inhibition | outcome
Cc1ccc(CNC(=O)C2CCN(S(=O)(=O)c3cn(C)cn3)CC2)cc1 | inactive: -16.8% | –
CCc1ccccc1-n1c(C)nc2cc(C(=O)NCCc3ccc(Cl)cc3)ccc21 | inactive: -10.3% | –
CC(C)OCCCNC(=O)CN1C(=O)COc2ccc(S(=O)(=O)N3CCCCCC3)cc21 | inactive: -0.148% | –
CC(C)N(Cc1ccccc1)S(=O)(=O)c1ccc(-c2cc(C(F)(F)F)on2)s1 | inactive: -7.36% | –
COCCCNC(=O)CCc1c(C)nc2nc(-c3cc(OC)cc(OC)c3)nn2c1C | – | inactive
CCOCCCNC(=O)c1cnc2sc(N3CCCCC3)nn2c1=O | – | inactive
CCCCCn1c(CCNC(=O)c2ccc(F)cc2)nc2ccccc21 | – | inactive
Cc1cc(C)cc(OCC(=O)N(Cc2cccs2)c2ccc(Cl)cc2)c1 | – | inactive
CCCS(=O)(=O)N1CC(=O)N(c2cccc(Cl)c2C)C(C)(C(=O)NC2CCCC2)C1 (stereo unspecified) | inactive: 0.447% | –
Cc1cc(-c2ccc(C)c(S(=O)(=O)NCc3cccc(Br)c3)c2)on1 | inactive: 2.65% | –
O=C(O)CCNc1cc(N2CCc3ccccc3CC2)nc(-c2ccccn2)n1 | inactive: -3.79% | –
COc1ccc(-n2c(C)c(C(C)=O)c3cc(OC(=O)COc4ccccc4)ccc32)cc1 | – | inactive
CCC(Oc1ccccc1)C(=O)Nc1cc(-c2cccc(C)c2)nn1-c1ccccc1 (stereo unspecified) | – | inactive
COc1cccc(CNC(=O)Cn2ncn3nc(-c4cccs4)cc3c2=O)c1OC | inactive: -16.4% | –
Cc1ccc(CNC(=O)Cc2c(C)c3c(cc(C)c4c(C)coc43)oc2=O)cc1 | – | inactive
COc1ccc(-n2nc(C(=O)N3CCN(c4cccc(C)c4C)CC3)c3c4ccccc4n(C)c3c2=O)cc1Cl | inactive: -9.88% | –
Cc1ccc2onc(CC(=O)N3CCN(c4cc(Cl)ccc4C)CC3)c2c1 | inactive: -23.3% | –
Fc1ccc(-c2nn(-c3ccccc3Cl)c3c2cnc2ccccc23)cc1 | inactive: 10.2% | –
Fc1ccccc1Cc1cn2cc(-c3ccc(Cl)cc3)nc2s1 | – | inactive
CC(NC(=O)c1ccc2c(c1)CCN2S(=O)(=O)c1ccccc1)c1ccccc1 (stereo unspecified) | inactive: 0.49% | –
COc1ccc(CNC(=O)c2nc(SCc3ccccc3F)ncc2Cl)cc1 | inactive: -13.3% | –

Structure (SMILES) | activity change, negative = inhibition | outcome
COc1ccccc1Cn1c(CNS(=O)(=O)c2ccc(C(C)C)cc2)nc2cccnc21 | – | inactive
CCC(=O)N1CCCc2cc(S(=O)(=O)N3CCC(C(=O)NC4CCCCC4)CC3)ccc21 | inactive: -17.7% | –
O=C(c1ccc2c(c1)N(Cc1ccc(F)cc1)C(=O)c1ccccc1S2(=O)=O)N1CCCC1 | inactive: 7.77% | –
COc1ccccc1NC(=O)c1oc2ccccc2c1NC(=O)c1cccc(OC)c1OC | inactive: -16.2% | –
CCOc1ccc(-c2cc(C(=O)Oc3ccc(C#N)cc3)no2)cc1 | inactive: -8.16% | –
COc1ccc(/C=C/c2nc(C#N)c(NCc3ccc(F)cc3)o2)cc1OC | – | inactive
COc1cc(NC(=O)CCS(=O)(=O)c2ccc3c(c2)CC(=O)N3C)cc(OC)c1OC | – | inactive
Cc1cccc(/C=C(\C#N)c2nc3ccccc3c(=O)[nH]2)c1 | inactive: 10.6% | –
CCOC(=O)C1CCC(CN(Cc2ccccc2)S(=O)(=O)c2ccc(Br)cc2)CC1 (stereo unspecified) | inactive: -2.1% | –
Cc1ccccc1Nc1c(-c2cc(Br)ccc2F)nc2ccccn12 | – | inactive
CCCN1Cc2cccc(C(=O)Nc3ccc(C(C)=O)cc3)c2C1=O | inactive: -5.73% | –
O=C(CCS(=O)(=O)c1ccccc1)N(Cc1cccnc1)c1nc2ccc(Cl)cc2s1 | inactive: 5.52% | –
COc1ccc(N2CCN(CCCNC(=O)c3cc(Nc4ccc(OC)cc4OC)nc4ccccc34)CC2)cc1 | inactive: -4.03% | –
CCOc1ccc(N(CC)S(=O)(=O)N2CCCC(C(=O)Nc3ccc(C(C)=O)cc3)C2)cc1 (stereo unspecified) | – | inactive
CNC(=O)[C@H](CC1=CN=C2C=CCC=C12)NC(=O)[C@@H](CC(=O)NO)CC(C)C | inactive: -6.24% | –
O=C(CN1C(=O)COc2ccccc21)NCCc1ccc(Cl)cc1 | – | inactive
Cc1cccc(-n2c(=O)c3c(c4cc(C)ccc4n3C)n(CC(=O)N3CCCC3)c2=O)c1 | inactive: -23.1% | –
CC=CC1=C(C(=O)O)N2C(=O)[C@H](NC(=O)[C@H](N)c3ccc(O)cc3)[C@@H]2SC1 | inactive: 14.5% | –
Cc1c(C(=O)Nc2cccc(Cl)c2)sc2nc3n(c(=O)c12)N=C(c1cccc(Br)c1)CS3 | inactive: -5.66% | –
